Experimental findings from PubChem BioAssay AID2101 (National Center for Advancing Translational Sciences (NCATS), 2009) are described below.

Several values for one entry are separate records, joined by “and”; a condition that tells them apart may be missing. Identical values can stand only once. The whole screen tested about 330,000 compounds, of which about 300 (0.091%) were called active. Roughly 4% stayed inconclusive and do not appear here. The call rests on the fitted dose curve; in most records, active means well fitted inhibition curve with a large enough effect; inconclusive means small, poorly fitted or top-dose-only effect, or effect the other way, or another doubt; inactive means no such curve, though single readings can be large or run the other way. Only a part is listed here, and it is no random draw. The source holds several records for some structures; these can differ, active in one and inactive in another.
Potency means the concentration at half of the fitted maximal effect.

This experiment concerns the target Lysosomal acid glucosylceramidase (Homo sapiens) (UniProt P04062). Kind of experiment: qHTS Assay for Inhibitors and Activators of N370S glucocerebrosidase as a Potential Chaperone Treatment of Gaucher Disease.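 On activity change, negative = inhibition: 0% = full enzyme activity and -100% = no enzyme basal.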 The following applies: N370S GC spleen homogenate, 4MU-glucoside fluorescence; series mostly up to 59.4 µM; activity change, negative = inhibition: at the top concentration.
With `COc1ccc2cc(CCC(C)=O)ccc2c1`, the Potency result is “inactive”. On to `Cc1cc(NC(=O)Nc2cccc3ccccc23)no1`, for which the “activity change, negative = inhibition” value was inactive: 21.4%. `C=C(C)C1CC=C(CN2CCN(Cc3ccccc3)CC2)CC1` (stereo unspecified): the “activity change, negative = inhibition” value was inactive: -3.21%. On to `NCCS(=O)(=O)O`, for which the Potency entry was “inactive”. As to `O=C(Nc1cccc(C(F)(F)F)c1)/C(=C/c1ccco1)NC(=O)c1cccs1`, the “activity change, negative = inhibition” value is inactive: 12.2%.

On to `O=c1c(O)c(-c2cc(O)c(O)c(O)c2)oc2cc(O)cc(O)c12`, for which the Potency result was “inactive”. For `CC12CCC(C(=O)Nc3ccccc3Cl)(C(Br)C1=O)C2(C)C` (stereo unspecified), the “activity change, negative = inhibition” value was inactive: -9.83%. Take `Oc1ccccc1Nc1nc(NCc2ccccc2)c2ccccc2n1`: the Potency was active: 11.2 µM.

For `O=C(NC1CC1)C1=C[C@@H](c2ccc(Br)cc2)C[C@@H](OCc2ccc(CO)cc2)O1`, the “activity change, negative = inhibition” value was inactive: 11.2%.

Consider `Cc1cc(C)cc(N(CC(=O)Nc2ccc(C(F)(F)F)cc2)S(=O)(=O)c2c(C)[nH]c(=O)[nH]c2=O)c1`, for which the Potency was active: 2.24 µM. `CCNc1ccc(S(=O)(=O)N(C)C)cc1NCC(=O)Nc1ccccc1F`: the Potency was active: 10 µM. Consider `O=C(O)c1ccc2c(c1)C(=O)N([C@@H](Cc1ccc(O)cc1)C(=O)O)C2=O`, for which the “activity change, negative = inhibition” value was inactive: 9.37%.

For the compound `OCCN1CCN(CCCN2c3ccccc3Sc3ccc(Cl)cc32)CC1`, the “activity change, negative = inhibition” value is inactive: -7.43% [at 21.6 µM]. On the same count and under the same terms, with `COc1cccc(-c2nc(N3CCN(Cc4ccccc4)CC3)c3ccccc3n2)c1O` the figure was inactive: -3.95%. As for `CCN(CC)CCOc1ccc(/C(=C(\Cl)c2ccccc2)c2ccccc2)cc1`, the Potency result is “inactive”. In the case of `C[C@@H](C(=O)N[C@@H](CO)Cc1ccccc1)[C@@H]1C[C@@]1(C)[C@@H](NC(=O)OCc1ccccc1)c1ccccc1`, the “activity change, negative = inhibition” value was inactive: -21.1%. As for `O=C1O/C(=C\c2ccccc2)c2ccccc21`, the “activity change, negative = inhibition” value is inactive: -1.26%. On to `FC(F)(F)c1ccc(CN2C[C@@H]3C(c4ccc(Cl)nc4)C4(c5cccnc5)CC3(C4)[C@H]2c2ccccc2)cc1` (stereo partly specified), for which the “activity change, negative = inhibition” value was inactive: -14.7%. In the case of `COc1cc2nc(N3CCN(C(=O)C4CCCO4)CC3)nc(N)c2cc1OC` (stereo unspecified), the “activity change, negative = inhibition” value was inactive: 13.9%. Consider `CCOc1ccc(N(CC(=O)NC2CCCC2)S(=O)(=O)c2c(C)[nH]c(=O)[nH]c2=O)cc1`, for which the Potency was active: 7.94 µM. Take `CCN(CC)c1ccc(/C=C2/C(=O)c3ccc(C(=O)O)cc3C2=O)cc1`: the “activity change, negative = inhibition” value was inactive: 0.0393%. `CCOC(=O)CC(=O)CSc1nc2ccc(C)cc2cc1C#N`: the Potency is active: 22.4 µM. Regarding `C[C@]1(C(=O)NCCN2CCOCC2)C=C[C@@H](Cc2ccccc2)N1C(=O)c1ccccc1`, the “activity change, negative = inhibition” value was inactive: 25.7%. Take `CC1=C(/C=C/C(C)=C/C=C/C(C)=C/C(=O)Nc2ccc(O)cc2)C(C)(C)CCC1`: the Potency result was “inactive”. `CC[n+]1c(/C=C2\C=C(C)CC(C)C2)sc2ccccc21` (stereo unspecified): the “activity change, negative = inhibition” value was inactive: -0.754%. As to `Brc1ccc(C2C3=C(Nc4ncnn42)c2ccccc2OC3c2ccncc2)cc1` (stereo unspecified), the Potency was active: 14.1 µM.

Take `CCCCCCCCCCCCCCC[C@@H](O)[C@@H](N)CO`: the Potency result is “inactive”.

Take `Cc1ccc(C)c(N2CCN(S(=O)(=O)c3ccc4[nH]c(=O)c(=O)[nH]c4c3)CC2)c1`: the Potency was active: 12.6 µM. With `Cc1cccc(C2=NN(c3ccc(Br)cc3)[C@@H](C(=O)N3CCOC3=O)[C@@H]2c2ccc(F)cc2)c1`, the “activity change, negative = inhibition” value is inactive: 11%. Consider `CCCCCCCCCCCCC/C=C\[C@@H](O)[C@@H](N)CO`, for which the “activity change, negative = inhibition” value was inactive: -15.2%. For the compound `CCO[C@@H]1OC(C(=O)Nc2ccccc2)=C[C@H](c2ccc(C(F)(F)F)cc2)[C@H]1CCCO`, the “activity change, negative = inhibition” value is inactive: -6.98%. The same measure, in the same setting: to `O[C@H](c1cc(C(F)(F)F)nc2c(C(F)(F)F)cccc12)[C@H]1CCCCN1` belongs inactive: -0.556% [at 21.6 µM]. In the case of `Cc1ccc(S(=O)(=O)Nc2cccc3cccnc23)cc1`, the “activity change, negative = inhibition” value was inactive: 3.64%.

Consider `Cc1ccc(C(=O)Nc2ccc(S(=O)(=O)O)c3cc(S(=O)(=O)O)cc(S(=O)(=O)O)c23)cc1NC(=O)c1cccc(NC(=O)Nc2cccc(C(=O)Nc3cc(C(=O)Nc4ccc(S(=O)(=O)O)c5cc(S(=O)(=O)O)cc(S(=O)(=O)O)c45)ccc3C)c2)c1`, for which the Potency result was “inactive”. Turning to `O=C1CCN(CCc2ccccc2)CCN1C(CSc1ccc(Br)cc1)Cc1ccccc1` (stereo unspecified), the “activity change, negative = inhibition” value was inactive: -5.74%. Consider `CCN(Cc1ccccc1)S(=O)(=O)c1ccc(C(=O)N(CCCN(C)C)c2nc3cc(C)cc(C)c3s2)cc1`, for which the Potency is active: 14.1 µM.

As for `COc1cccc(-c2nc(NCc3ccccc3OC)c3ccccc3n2)c1`, the Potency was active: 14.1 µM. `CCOC(=O)[C@@H]1[C@H]2COc3ccc(Br)cc3[C@@H]2N2C(=O)N(c3cccc(F)c3)C(=O)[C@@]12C`: the “activity change, negative = inhibition” value was inactive: 4.26%. For the compound `O=c1c(-c2ccc(O)cc2)coc2cc(O)cc(O)c12`, the Potency result is “inactive and active: 15.8 µM”. Take `COc1ccc(C(CCN2CCCC2)c2c(OC)cc(OC)c3c(-c4ccccc4)cc(=O)oc23)cc1` (stereo unspecified): the “activity change, negative = inhibition” value is inactive: -24.1%.

In the case of `CCOc1ccc(NC(=O)CNC(=O)c2cn(-c3ccccc3OC)c(=O)c3ccccc23)cc1`, the Potency is active: 12.6 µM. Consider `CCCCCCCCCCCCCCCC[N+](C)(C)CCN(Cc1ccc(OC)cc1)c1ncccn1`, for which the “activity change, negative = inhibition” value was inactive: 0.347% [at 21.6 µM].

In the case of `CN1CCN(S(=O)(=O)c2cccc(C(=O)Nc3sc4c(c3-c3nc5ccccc5[nH]3)CCCC4)c2)CC1`, the Potency is active: 11.2 µM.

As to `CC(C)COC[C@H](CN(Cc1ccccc1)c1ccccc1)N1CCCC1`, the “activity change, negative = inhibition” value is inactive: 2.26% [at 21.6 µM]. For `CN(C)CCCN1c2ccccc2CCc2ccc(Cl)cc21`, the Potency entry is “inactive”. For the compound `Cc1cc(C(C)(C)CC(C)(C)C)ccc1OCCOCC[N+](C)(C)Cc1ccccc1`, the Potency entry is “inactive”. Turning to `CCCCC[C@H](O)/C=C/[C@@H]1[C@@H](C/C=C\CCCC(=O)O)[C@H]2CO[C@@H]1C2`, the Potency result was “inactive”. As to `COc1cc(C(CCN2CCCC2)c2c(OC)cc(OC)c3c(-c4ccccc4)cc(=O)oc23)cc(OC)c1OC` (stereo unspecified), the “activity change, negative = inhibition” value is inactive: -25.1%. As for `Clc1ccc2c(c1)N=C(N1CCNCC1)c1ccccc1N2`, the “activity change, negative = inhibition” value is inactive: -25.1%. Consider `C#CCNC(=O)C1=C[C@@H](c2cn(C(C)=O)c3ccccc23)C[C@@H](OCc2ccc(CO)cc2)O1`, for which the “activity change, negative = inhibition” value is inactive: 5.4%. With `CO[C@H]1/C=C/O[C@@]2(C)Oc3c(C)c(O)c4c(O)c(c(/C=N/N5CCN(C)CC5)c(O)c4c3C2=O)NC(=O)/C(C)=C\C=C\[C@H](C)[C@H](O)[C@@H](C)[C@@H](O)[C@@H](C)[C@H](OC(C)=O)[C@@H]1C`, the Potency result was “inactive”.

Turning to `O=C1NC(=O)C(c2ccccc2[N+](=O)[O-])=C1Nc1ccc(O)c(Cl)c1`, the Potency result is “inactive”. With `COC/C=C/C1=CC2=CC(=O)C(C)(OC(=O)c3cnc4ccccc4n3)C(=O)C2=CN1C(CO)CO` (stereo unspecified), the activity change, negative = inhibition is inactive: 5.01% [at 12.8 µM]. For the compound `Cc1ccc2sc(N(CCCN(C)C)C(=O)c3ccc(S(=O)(=O)N(C)C4CCCCC4)cc3)nc2c1C`, the Potency is active: 20 µM. Turning to `CNc1ncnc2ccc(-c3cccc(OC)c3)cc12`, the Potency is active: 8.91 µM. The same measure, in the same setting: with `COC(=O)[C@H]1[C@H]2CC3c4[nH]c5ccccc5c4CCN3C[C@@H]2CC[C@@H]1O` (stereo partly specified) the entry was “inactive”. Consider `C[C@@H]1C(=O)O[C@H]2[C@@H](O)[C@@]34[C@H]5CC(C(C)(C)C)[C@]36[C@@H](OC(=O)[C@@H]6O)O[C@@]4(C(=O)O5)[C@@]12O` (stereo partly specified), for which the “activity change, negative = inhibition” value is inactive: -7.45%. On the same count and under the same terms, with `Cc1ccc(SCC(c2ccccc2)N2CCN(CCc3ccccc3)CCC2=O)cc1` (stereo unspecified) the figure was inactive: -7.54%; with `O=C(C1=C[C@H](c2csc3ccccc23)C[C@H](OCCCCO)O1)N1CCN(Cc2ccc3c(c2)OCO3)CC1`, inactive: -17%; with `C[C@@H]1C(=O)O[C@@H]2[C@H](O)C34[C@H]5C[C@@H](C(C)(C)C)C36[C@H](OC(=O)[C@@H]6O)OC4(C(=O)O5)[C@@]12O` (stereo partly specified), inactive: -3.57%. With `CN1CCN(CC/C=C2/c3ccccc3Sc3ccc(S(=O)(=O)N(C)C)cc32)CC1`, the “activity change, negative = inhibition” value is inactive: -14.3%. The same measure, in the same setting: to `CCCCCCCCCCCCC/C=C/[C@@H](O)[C@H](CO)NC(=O)CCCCCCC` belongs inactive: 1.7%. Take `CC(Cc1cccc(C(F)(F)F)c1)NCCOC(=O)c1ccccc1` (stereo unspecified): the Potency result was “inactive”.

As for `O=C(/C=C/c1ccc(O)c(O)c1)OC(Cc1ccc(O)c(O)c1)C(=O)O` (stereo unspecified), the Potency entry is “inactive”. On to `O=C(NCc1ccccc1)C1=C[C@@H](c2coc3ccccc3c2=O)C[C@@H](OCc2ccc(CO)cc2)O1`, for which the “activity change, negative = inhibition” value is inactive: 25.6%. Turning to `COc1cccc(NC(=O)OCCN2CCN(Cc3ccccc3)CCC2=O)c1`, the “activity change, negative = inhibition” value is inactive: 3.83%. `CC(Nc1nc(-c2ccccc2)nc2ccccc12)c1ccccc1` (stereo unspecified): the Potency was active: 5.01 µM.

On to `C#CCOCCOCCOCCNc1nc(N2CCN(C(=O)CCCCCCCCCCNC(=O)[C@H](CCCN=C(N)N)n3cc(C[C@@H](C)CC)nn3)CC2)nc(N2CCN(C(=O)CCCCCCCCCCNC(=O)[C@@H]([C@H](C)CC)n3cc(CCCCCN)nn3)CC2)n1`, for which the Potency was active: 5.62 µM. The same measure, in the same setting: with `NNCCc1ccccc1` the entry was “inactive”. Consider `COc1cc(C(CCN2CCOCC2)c2c(OC)cc(OC)c3c2OC(=O)CC3c2ccc(N(C)C)cc2)cc(OC)c1OC` (stereo unspecified), for which the “activity change, negative = inhibition” value was inactive: -26.5%. As for `CCCN1C(=O)/C(=C/c2nc3ccccc3c(=O)[nH]2)c2ccccc21`, the “activity change, negative = inhibition” value was inactive: 15.6%. In the case of `Oc1cc2c(cc1O)[C@H]1c3ccc(O)c(O)c3OC[C@@]1(O)C2`, the Potency entry is “inactive”. Take `CC12CCC=CC1C(c1ccc3ccccc3c1)N(Cc1ccccc1)C2=O` (stereo unspecified): the “activity change, negative = inhibition” value was inactive: 6.3%. For `Cc1ccc(Cl)cc1N1CCN(S(=O)(=O)c2ccc3[nH]c(=O)c(=O)[nH]c3c2)CC1`, the Potency is active: 8.91 µM. Consider `COc1cccc(-c2nc(NCCc3c[nH]c4ccc(OC)cc34)c3ccccc3n2)c1`, for which the Potency was active: 14.1 µM. Take `Nc1nc(-c2ccccc2)cs1`: the activity change, negative = inhibition was inactive: -1.13% [at 12.8 µM]. Consider `CCc1ccccc1OC[C@@H](O)CN[C@H]1CCCc2ccccc21`, for which the “activity change, negative = inhibition” value is inactive: -18.1%. `O=C1OCCN1C(=O)[C@H]1[C@H](c2ccc(F)cc2)C(c2ccc(F)cc2)=NN1c1ccc(Br)cc1`: the “activity change, negative = inhibition” value is inactive: 10.7%. Take `CN1C2CCC1CC(OC(=O)c1c[nH]c3ccccc13)C2` (stereo unspecified): the Potency result was “inactive”. Turning to `COc1cc(OC)c2ccc(=O)oc2c1C(CC(=O)N1CCCC1)c1ccc(N(C)C)cc1` (stereo unspecified), the “activity change, negative = inhibition” value is inactive: 8.36%. For the compound `CN1CCN(NC(=O)c2cn(-c3ccccc3)nc2-c2cccc(Br)c2)CC1`, the Potency is active: 10 µM.
